In PMC4336329 (PLoS ONE, 2015):
In all, about 310,000 compounds went through this assay and about 2,200 (0.71%) showed an effect of 50% or more. The effect is printed as a negative number. Some of the results follow.

Target: human ether-à-go-go-related gene (hERG) potassium channel (human, UniProt Q12809)
Assay: primary screen, population patch clamp on CHO cells stably expressing hERG

Sequence of human ether-à-go-go-related gene (hERG) potassium channel (Q12809 whole entry, looked up): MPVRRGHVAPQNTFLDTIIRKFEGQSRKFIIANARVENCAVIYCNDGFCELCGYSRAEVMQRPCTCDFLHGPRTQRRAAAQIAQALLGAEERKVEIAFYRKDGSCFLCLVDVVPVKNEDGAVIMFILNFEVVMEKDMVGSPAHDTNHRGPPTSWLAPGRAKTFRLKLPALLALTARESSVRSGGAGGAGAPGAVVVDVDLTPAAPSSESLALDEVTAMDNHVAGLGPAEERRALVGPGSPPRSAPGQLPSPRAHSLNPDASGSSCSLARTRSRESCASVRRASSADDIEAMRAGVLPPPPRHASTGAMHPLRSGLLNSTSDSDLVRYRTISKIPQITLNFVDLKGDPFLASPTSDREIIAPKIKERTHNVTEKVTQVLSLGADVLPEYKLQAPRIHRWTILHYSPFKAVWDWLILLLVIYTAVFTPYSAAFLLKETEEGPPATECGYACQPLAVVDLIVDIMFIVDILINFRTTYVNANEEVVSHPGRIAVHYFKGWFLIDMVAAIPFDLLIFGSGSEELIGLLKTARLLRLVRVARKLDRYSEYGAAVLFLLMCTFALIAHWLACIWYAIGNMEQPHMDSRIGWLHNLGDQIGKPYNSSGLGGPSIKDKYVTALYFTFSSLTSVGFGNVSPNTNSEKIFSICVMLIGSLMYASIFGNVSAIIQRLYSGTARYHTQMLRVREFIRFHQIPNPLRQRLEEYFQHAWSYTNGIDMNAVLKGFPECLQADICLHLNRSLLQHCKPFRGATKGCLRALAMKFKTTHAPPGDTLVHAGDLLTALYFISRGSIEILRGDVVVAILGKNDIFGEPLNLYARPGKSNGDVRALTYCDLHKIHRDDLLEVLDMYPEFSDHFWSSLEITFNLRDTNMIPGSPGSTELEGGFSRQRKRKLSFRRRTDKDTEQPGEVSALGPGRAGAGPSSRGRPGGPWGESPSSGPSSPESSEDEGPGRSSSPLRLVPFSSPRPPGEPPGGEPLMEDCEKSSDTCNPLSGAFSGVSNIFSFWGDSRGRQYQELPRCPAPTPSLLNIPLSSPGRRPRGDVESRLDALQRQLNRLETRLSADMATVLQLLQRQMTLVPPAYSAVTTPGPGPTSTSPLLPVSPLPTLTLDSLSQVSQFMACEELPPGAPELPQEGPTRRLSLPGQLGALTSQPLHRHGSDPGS

SMILES	hERG current change (%, negative = inhibition) at 1uM [%]
CCC(Cc1ccccc1)NC(=O)/C=C/c1ccco1 (centres unmarked)	12.7
CC1=NN(C(=O)c2ccc(Cn3nc(C)c([N+](=O)[O-])c3C)cc2)C(O)(C(F)(F)F)C1 (centres unmarked)	-8.46
O=S(=O)(NCCc1ccccc1)c1cccc2nsnc12	1.55
O=C(NCCCCCNC(=O)c1ccccn1)c1ccccn1	10.2
C=CCN1c2ccccc2[C@]23C[C@@H](C(=O)OC)N(C(=O)C4CCC4)C2=NC(C(=O)OC)=C(C(=O)OC)[C@H]13	3.06
Cc1cc(NC(=O)CSc2nc(-c3cccs3)cc(C(F)(F)F)n2)no1	12.2
CC(C)COP(=O)(c1ccc(N(C)C)cc1)C(Nc1ccccc1)c1ccccc1 (centres unmarked)	12.3
O=C(CCSCCC(=O)Nc1ccccc1F)Nc1ccccc1F	9.32
C=CCn1c(SCC(=O)N(CC)CC)nc(O)cc1=O	11.8
CCOn1c(=O)c(-c2ccc(C)cc2)[n+]([O-])c2ccccc21	13.7
CC(=O)Nc1ccc(NC(=O)c2c(C)nn(Cc3ccccc3)c2Cl)cc1	9.13
CC(C)(C)c1ccc(-c2csc(NC(=O)CN3C(=O)NC4(CCCCC4)C3=O)n2)cc1	18.2
CCOC(=O)N1CCC(c2cc(=O)n3[nH]ccc3n2)CC1	16.5
CN(C)c1nc(NCc2ccccc2)nc(N/N=C/c2ccc(Br)cc2)n1	7.76
CC(C)C[C@H]1C(=O)N2CCC[C@H]2[C@]2(O)O[C@](NC(=O)[C@@H]3C=C4c5cccc6[nH]c(Br)c(c56)CC4N(C)C3)(C(C)C)C(=O)N12.CS(=O)(=O)O (some centres unmarked)	16.5
CCOC(=O)c1c(-c2ccc(C)cc2)csc1NC(=O)CCSc1nnc2ccccn12	7.31
O=c1[nH]cnc2nc(-c3ccccc3)c(-c3ccccc3)nc12	-9.89
Cc1nc2sc3c(c2c(=O)o1)CCC3	5.89
CCn1nc(C(C)C)cc1C(=O)N1CCCC(CO)(Cc2ccc(F)cc2F)C1 (centres unmarked)	5.81

SMILES	hERG current change (%, negative = inhibition) at 1uM [%]
O=C(Nc1sc2c(c1C(=O)O)CCC2)c1cccs1	17.6
O=C(NC1CCCCC1)c1cc(S(=O)(=O)N2CCCC2)ccc1Cl	10.8
COc1ccc(/C(C)=N/Nc2ncc(Cl)cc2Cl)c(O)c1	2.52
Cc1nc2c(c(=O)c3ccccc3n2C)c(=O)n1-c1ccccc1	9.45
Cc1nc(SCc2ccccc2F)c2cnn(-c3ccccc3)c2n1	7.34
CC(C)COc1ccc(CSCCNC(=S)Nc2ccccc2)cc1	9.95
CCCCNC(=O)N1CCN(c2ccccc2OC)CC1	5.81
CSc1nc(SCC(=O)NCc2ccco2)c2c3c(sc2n1)COC(C)(C)C3	-2.39
c1ccc(C2=Nn3c(nnc3-c3cccnc3)SC2)cc1	-4.73
CCc1ccc(C2N3CC4([N+](=O)[O-])CN2CC([N+](=O)[O-])(C3)C4(C)C)cc1 (centres unmarked)	9.86
O=C(c1ccc(Cn2cc(Br)cn2)o1)n1cccn1	10.5
CSCCC(NC(=O)C1CCC(C)CC1)C(=O)OCC(=O)c1ccc(Cl)cc1 (centres unmarked)	11.7
CN(Cc1cc(=O)[nH]c2ccccc12)C(=O)c1ccccc1	10.4
CN(C(=O)CSc1nc(O)cc(=O)n1C1CCCC1)c1ccccc1	4.58
COc1ccc(C(=O)NCC(=O)OCC(=O)c2ccc(Cl)cc2)cc1OC	-31.1
CCC(=O)c1cc(F)c(N2CCN(C(=O)Cc3ccccc3)CC2)cc1C	-4.24
O=C(COC(=O)c1cccc(F)c1)Nc1ccc2c(c1)OCCO2	10.3
Cc1cc(C)c(C)c(S(=O)(=O)NCC(=O)O)c1C	10.6
O=C(Cn1nc(C(=O)O)c2ccccc2c1=O)NCc1ccco1	11

SMILES	hERG current change (%, negative = inhibition) at 1uM [%]
CC1=Nc2cc(C(=O)N3CCCC3)ccc2Sc2c(C)ccc(C)c21	22
CCSc1ccccc1C(=O)NCc1ccco1	9.88
Cn1c(SCC(=O)n2c3c(c4ccccc42)CCCC3)nnc1-c1ccccc1	-4.41
O=C(NN=C1CCCCC1)NC1CCCCC1	10.1
CC(=O)c1cccc(CN2CCc3ccc(NC(=O)C4CCCO4)cc3C2)c1 (centres unmarked)	17.5
COC(=O)c1c(C)nn(-c2ccc(OC(F)(F)F)cc2)c1-c1snnc1C	3.65
COc1cc(C(C(=O)NC2CCCCC2)N(C(=O)Cc2c[nH]c3ccccc23)c2ccccc2C)cc(OC)c1OC (centres unmarked)	4.08
CN(Cc1cnccn1)C(=O)CC1C(=O)NCCN1Cc1c(F)cccc1Cl (centres unmarked)	19.6
Cc1ccc(S(=O)(=O)N2CCCOC2CNC(=O)C(=O)NC2CCCC2)cc1 (centres unmarked)	5.9
CCOC(=O)c1c(C)[nH]c(C(=O)/C(C#N)=C/c2ccc(OCC)cc2)c1C	14.3
CCN(CC)S(=O)(=O)c1cccc(NC(=O)COC(=O)c2cccs2)c1	9.82
CCCCCN(C(=O)CCC(=O)OCC(=O)c1ccc(C(C)CC)cc1)c1c(N)n(CCCC)c(=O)[nH]c1=O (centres unmarked)	5.92
N#Cc1ccccc1NC(=O)CSc1cn[nH]n1	5.64
Cc1nc2ccccc2nc1Nc1cccc(Cl)c1	15.5
C/C(=N/NS(=O)(=O)c1ccc(C(C)C)cc1)c1ccncc1	10.3
CN(CCCNC(=O)C1CCN(S(=O)(=O)c2cccc3nsnc23)CC1)Cc1ccccc1	-0.292
COCCNc1nc2nonc2nc1N1CCCC1c1nccs1 (centres unmarked)	19.5
O=C(C1=C[C@H](C2CC2)C[C@H](OCCCCO)O1)N1CCN(Cc2ccccc2)CC1	-1.32
